From the supplement of paper PMC8728848
The list shows a part of the results.

Experiments:
Experiment in all cases: glycan array binding signal (z-score within array); higher = stronger binding
Settings in all cases: glycan notation: IUPAC condensed, linker removed
[1] = target: Gal(a1-3)[Gal(a1-4)]Gal(b1-4)GlcNAc
In short: (§1)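 Glycan array binding is given as a within-array Z-score, which can be read as non-binding when negative. The arrays, 3228 of them, came from the Consortium for Functional Glycomics database and were retained only where the protein sequence was available. Z-scores were averaged across arrays of the same protein sequence at different concentrations or buffers and across linkers.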

[2] = target: Gal(a1-4)Gal(b1-3)GlcNAc(b1-2)Man(a1-3)[Gal(a1-4)Gal(b1-3)GlcNAc(b1-2)Man(a1-6)]Man(b1-4)GlcNAc(b1-4)GlcNAc
In short: as §1

Gal(a1-4)Gal(b1-4)Glc = target: Gal(a1-4)Gal(b1-4)Glc
In short: as §1

Gal(a1-4)Gal(b1-4)GlcNAc = target: Gal(a1-4)Gal(b1-4)GlcNAc
In short: as §1

[3] = target: Gal(a1-4)Gal(b1-4)GlcNAc(b1-2)Man(a1-3)[Gal(a1-4)Gal(b1-4)GlcNAc(b1-2)Man(a1-6)]Man(b1-4)GlcNAc(b1-4)GlcNAc
In short: as §1

[4] = target: Gal(a1-4)Gal(b1-4)GlcNAc(b1-3)Gal(b1-4)Glc
In short: as §1

Gal(a1-4)GlcNAc = target: Gal(a1-4)GlcNAc
In short: as §1

Gal(a1-6)Glc = target: Gal(a1-6)Glc
In short: as §1

Gal(b1-2)Gal = target: Gal(b1-2)Gal
In short: as §1

Gal(b1-3)Gal = target: Gal(b1-3)Gal
In short: as §1

Gal(b1-3)Gal(b1-4)GlcNAc = target: Gal(b1-3)Gal(b1-4)GlcNAc
In short: as §1

[5] = target: Gal(b1-3)Gal(b1-4)GlcNAc(b1-2)Man(a1-3)[Gal(b1-3)Gal(b1-4)GlcNAc(b1-2)Man(a1-6)]Man(b1-4)GlcNAc(b1-4)GlcNAc
In short: as §1

Gal(b1-3)GalNAc = target: Gal(b1-3)GalNAc
In short: as §1

[6] = target: Gal(b1-3)GalNAc(a1-3)[Fuc(a1-2)]Gal(b1-4)Glc
In short: as §1

[7] = target: Gal(b1-3)GalNAc(a1-3)[Fuc(a1-2)]Gal(b1-4)GlcNAc
In short: as §1

Gal(b1-3)GalNAc(b1-3)Gal = target: Gal(b1-3)GalNAc(b1-3)Gal
In short: as §1

[8] = target: Gal(b1-3)GalNAc(b1-3)Gal(a1-4)Gal(b1-4)Glc
In short: as §1

[9] = target: Gal(b1-3)GalNAc(b1-4)Gal(b1-4)Glc
In short: as §1

[10] = target: Gal(b1-3)GalNAc(b1-4)Gal3S(b1-4)Glc
In short: as §1

[11] = target: Gal(b1-3)GalNAc(b1-4)[Neu5Ac(a2-3)]Gal(b1-4)Glc
In short: as §1

[12] = target: Gal(b1-3)GalNAc(b1-4)[Neu5Gc(a2-3)]Gal(b1-4)Glc
In short: as §1

Gal(b1-3)GlcNAc = target: Gal(b1-3)GlcNAc
In short: as §1

[13] = target: Gal(b1-3)GlcNAc(a1-3)Gal(b1-4)GlcNAc
In short: as §1

[14] = target: Gal(b1-3)GlcNAc(a1-6)Gal(b1-4)GlcNAc
In short: as §1

Gal(b1-3)GlcNAc(b1-2)Man = target: Gal(b1-3)GlcNAc(b1-2)Man
In short: as §1

[15] = target: Gal(b1-3)GlcNAc(b1-2)Man(a1-3)[Gal(b1-3)GlcNAc(b1-2)Man(a1-6)]Man(b1-4)GlcNAc(b1-4)GlcNAc
In short: as §1

[16] = target: Gal(b1-3)GlcNAc(b1-2)Man(a1-3)[Gal(b1-3)GlcNAc(b1-2)Man(a1-6)]Man(b1-4)GlcNAc(b1-4)[Fuc(a1-6)]GlcNAc
In short: as §1

[17] = target: Gal(b1-3)GlcNAc(b1-2)Man(a1-3)[GlcNAc(b1-4)][Gal(b1-3)GlcNAc(b1-2)Man(a1-6)]Man(b1-4)GlcNAc(b1-4)GlcNAc
In short: as §1

[18] = target: Gal(b1-3)GlcNAc(b1-2)[Gal(b1-3)GlcNAc(b1-6)]Man(a1-6)[Gal(b1-3)GlcNAc(b1-2)Man(a1-3)]Man(b1-4)GlcNAc(b1-4)GlcNAc
In short: as §1

[19] = target: Gal(b1-3)GlcNAc(b1-3)Gal(b1-3)GlcNAc
In short: as §1

[20] = target: Gal(b1-3)GlcNAc(b1-3)Gal(b1-4)Glc
In short: as §1

[21] = target: Gal(b1-3)GlcNAc(b1-3)Gal(b1-4)GlcNAc
In short: as §1

[22] = target: Gal(b1-3)GlcNAc(b1-3)Gal(b1-4)GlcNAc(b1-2)Man(a1-3)[Gal(b1-3)GlcNAc(b1-3)Gal(b1-4)GlcNAc(b1-2)Man(a1-6)]Man(b1-4)GlcNAc(b1-4)GlcNAc
In short: as §1

[23] = target: Gal(b1-3)GlcNAc(b1-3)Gal(b1-4)GlcNAc(b1-2)[Gal(b1-3)GlcNAc(b1-3)Gal(b1-4)GlcNAc(b1-6)]Man(a1-6)[Gal(b1-3)GlcNAc(b1-3)Gal(b1-4)GlcNAc(b1-2)Man(a1-3)]Man(b1-4)GlcNAc(b1-4)[Fuc(a1-6)]GlcNAc
In short: as §1

[24] = target: Gal(b1-3)GlcNAc(b1-3)Gal(b1-4)GlcNAc(b1-3)Gal(b1-4)Glc
In short: as §1

[25] = target: Gal(b1-3)GlcNAc(b1-3)Gal(b1-4)GlcNAc(b1-3)Gal(b1-4)GlcNAc(b1-2)[Gal(b1-3)GlcNAc(b1-3)Gal(b1-4)GlcNAc(b1-3)Gal(b1-4)GlcNAc(b1-6)]Man(a1-6)[Gal(b1-3)GlcNAc(b1-3)Gal(b1-4)GlcNAc(b1-3)Gal(b1-4)GlcNAc(b1-2)Man(a1-3)]Man(b1-4)GlcNAc(b1-4)[Fuc(a1-6)]GlcNAc
In short: as §1

[26] = target: Gal(b1-3)GlcNAc(b1-3)Gal(b1-4)GlcNAc(b1-6)[Gal(b1-3)GlcNAc(b1-3)]Gal(b1-4)Glc
In short: as §1

B1: PNA (Arachis hypogaea), P02872 (protein)
chain: MKPFCVFLTFFLLLAASSKKVDSAETVSFNFNSFSEGNPAINFQGDVTVLSNGNIQLTNLNKVNSVGRVLYAMPVRIWSSATGNVASFLTSFSFEMKDIKDYDPADGIIFFIAPEDTQIPAGSIGGGTLGVSDTKGAGHFVGVEFDTYSNSEYNDPPTDHVGIDVNSVDSVKTVPWNSVSGAVVKVTVIYDSSTKTLSVAVTNDNGDITTIAQVVDLKAKLPERVKFGFSASGSLGGRQIHLIRSWSFTSTLITTTRRSIDNNEKKIMNMASA
- glycan array binding signal (z-score) [1]: -0.127
- glycan array binding signal (z-score) [2]: -0.16
- glycan array binding signal (z-score) (Gal(a1-4)Gal(b1-4)Glc): -0.161
- glycan array binding signal (z-score) (Gal(a1-4)Gal(b1-4)GlcNAc): -0.177
- glycan array binding signal (z-score) [3]: -0.05
- glycan array binding signal (z-score) [4]: -0.15
- glycan array binding signal (z-score) (Gal(a1-4)GlcNAc): -0.157
- glycan array binding signal (z-score) (Gal(a1-6)Glc): -0.176
- glycan array binding signal (z-score) (Gal(b1-2)Gal): -0.173
- glycan array binding signal (z-score) (Gal(b1-3)Gal): 0.397
- glycan array binding signal (z-score) (Gal(b1-3)Gal(b1-4)GlcNAc): -0.001
- glycan array binding signal (z-score) [5]: 0.074
- glycan array binding signal (z-score) (Gal(b1-3)GalNAc): 1.37
- glycan array binding signal (z-score) [6]: 6
- glycan array binding signal (z-score) [7]: 8.53
- glycan array binding signal (z-score) (Gal(b1-3)GalNAc(b1-3)Gal): 5.33
- glycan array binding signal (z-score) [8]: 3.33
- glycan array binding signal (z-score) [9]: 7.85
- glycan array binding signal (z-score) [10]: 9.11
- glycan array binding signal (z-score) [11]: 3.91
- glycan array binding signal (z-score) [12]: 4.74
- glycan array binding signal (z-score) (Gal(b1-3)GlcNAc): -0.146
- glycan array binding signal (z-score) [13]: -0.49
- glycan array binding signal (z-score) [14]: -0.195
- glycan array binding signal (z-score) (Gal(b1-3)GlcNAc(b1-2)Man): -0.159
- glycan array binding signal (z-score) [15]: -0.12
- glycan array binding signal (z-score) [16]: -0.147
- glycan array binding signal (z-score) [17]: -0.227
- glycan array binding signal (z-score) [18]: -0.191
- glycan array binding signal (z-score) [19]: -0.166
- glycan array binding signal (z-score) [20]: 0.203
- glycan array binding signal (z-score) [21]: -0.217
- glycan array binding signal (z-score) [22]: -0.151
- glycan array binding signal (z-score) [23]: -0.28
- glycan array binding signal (z-score) [24]: 0.382
- glycan array binding signal (z-score) [25]: -0.067
- glycan array binding signal (z-score) [26]: 0.648
